The list shows a part of the results.
B1: chr1:22120052:22120517:-|CDS|ENSG00000162552|control|control|control (ssRNA)
RNA: GGGAGUUCUACAGUCCGACGAUCGUGCCACGCAACGCACAGUUCAAGCCGCACACAGAUGAGGACCUGGUGUACUUGGAGCCUAGCCCCGACUUCUGUGAGCAGGACAUGCGCAGCGGCGUGCUGGGCACGAGGGGCCGCACACAACAGAGGAUUGAGCAUCA
B2: chr6:145805060:145805161:-|CDS|ENSG00000118496|unk|total|mutant (ssRNA)
RNA: GGGAGUUCUACAGUCCGACGAUCAGAAGAUCCUAUGGGCCUCCAAGGAACCGAUCUGAUCACAGCAGCAUUGCUUUUUUGUCCCGGAGAUUCUCCAGGAGGGAGGGGUAUAUCUGACCGCCGCAUGGCUGAUAUUUAUCACAUCAACAGAGGAUUGAGCAUCA
B3: chr9:35056615:35056731:-|3pUTR|ENSG00000165280|msi1|FALSE|unique (ssRNA)
RNA: GGGAGUUCUACAGUCCGACGAUCCCCUAUCCAACCUGGGUAGGUGGGUAGGGGCCACAGUUGCUGGAUGUUUAUAUAGAGAGUAGGUUGAUUUAUUUUACAUGCUUUUGAGUUAAUGUUGGAAAACUAAUCACAAGCAGUUUCCAACAGAGGAUUGAGCAUCA
B4: chr2:25742488:25742589:-|CDS|ENSG00000143970|unk|FALSE|unique (ssRNA)
RNA: GGGAGUUCUACAGUCCGACGAUCCACUUUAAGUAAGGAGAAUUACCUGUUCACUAGAGGCCAAACAUUUGAUGAAAAGACCCUAGCCAGAGAUUUAAUUCAGGCAGCACAGAAGCAGAUGGCUCAUGCAGUGAGAGGUAAGGCCAACAGAGGAUUGAGCAUCA
B5: ENSG00000114354:stop:overlap|stop_codon|ENSG00000114354|stop_codon|NA|stop_codon (ssRNA)
RNA: GGGAGUUCUACAGUCCGACGAUCCAGCCGCAGGCUCCACCUCAGCAGCCUCAACAGUAUGGUAUUCAGUAUUCAGCAAGCUAUAGUCAGCAGACUGGACCUCAACAACCUCAGCAGUUCCAGGGAUAUGGCCAGCAACCAACUCAACAGAGGAUUGAGCAUCA
B6: chr3:11298707:11298833:+|CDS|ENSG00000197548|unk|FALSE|unique (ssRNA)
RNA: GGGAGUUCUACAGUCCGACGAUCAUAAUGGCGGCAGCUACGGGGGAUCCUGGACUCUCUAAACUGCAGUUUGCCCCUUUUAGUAGUGCCUUGGAUGUUGGGUUUUGGCAUGAGUUGACCCAGAAGAAGCUGAACGAGUAUCGGCAACAGAGGAUUGAGCAUCA

What follows are binders tested against T1, UNK ZnF1-6 (called full-length) (human, UniProt Q9C0B0 30-357) (assay: nsRBNS (natural sequence RNA bind-n-seq); RBNS binding buffer (assumed for nsRBNS): 25 mM Tris pH 7.5, 150 mM KCl, 3 mM MgCl2, 0.01% Triton X-100, 500 ug/ml BSA, 20 U/ml SUPERase-In, 4 C; UNK is unkempt and MSI1 is Musashi-1; names of the RNAs are library labels; protein concentration not given here; high values mean tight binding).
T1 sequence: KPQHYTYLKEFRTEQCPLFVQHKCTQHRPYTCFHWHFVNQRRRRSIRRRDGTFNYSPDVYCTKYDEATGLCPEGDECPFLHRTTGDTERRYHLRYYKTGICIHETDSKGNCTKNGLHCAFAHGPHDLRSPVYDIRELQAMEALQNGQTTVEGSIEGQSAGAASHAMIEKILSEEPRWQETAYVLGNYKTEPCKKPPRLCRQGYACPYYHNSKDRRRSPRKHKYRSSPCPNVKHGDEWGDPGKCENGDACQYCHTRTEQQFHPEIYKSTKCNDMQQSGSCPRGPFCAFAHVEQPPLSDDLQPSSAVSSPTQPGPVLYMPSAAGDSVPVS

Binder	binding signal
B1	0.813 enrichment R
B2	0.653 enrichment R
B3	0.815 enrichment R
B4	0.627 enrichment R
B5	1.05 enrichment R
B6	1.67 enrichment R
